Measured values: patent publication EP0478545B1, “1,2,4-BENZOTRIAZINE OXIDES AS RADIOSENSITIZERS AND SELECTIVE CYTOTOXIC AGENTS” (SRI INTERNATIONAL, priority 1989, dated 1991)

System: HA-1 cells
Assay: Hypoxic versus aerobic cytotoxicity from survival curves of cells in suspension culture
Details: HA-1 cells in vitro

CCN(CC)CCCNc1n[n+]([O-])c2ccccc2[n+]1[O-] [Compound 18a, 3-(3-N,N-diethylaminopropylamino)-1,2,4 benzotriazine 1,4-dioxide]
differential cytotoxicity against hypoxic cells compared to aerobic cells: retaining the high differential cytotoxicity

CCN(CC)CCNc1n[n+]([O-])c2cc([N+](=O)[O-])ccc2[n+]1[O-] [Compound 21, 7-nitro-3-(2-N,N-diethylaminoethylamino)-1,2,4-benzotriazine 1,4-dioxide hydrochloride]
differential cytotoxicity against hypoxic cells compared to aerobic cells: retaining the high differential cytotoxicity

Counter-ions that a name gives are not always drawn.
